The values that follow come from the supplement of paper PMC5919970.

This test relates to TYKNU. Briefly: fractional viability relative to vehicle; TYKNU is a high-grade serous ovarian cancer line; higher = less growth inhibition. To be noted: 72 h, genotype: OPA1 knockout (sgOPA1 #2). In short, it runs like this: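 TYKNU control cells or lentiCRISPRv2 knockout derivatives were plated at 500 cells per well in duplicate into drug-stamped 384-well plates holding a ~2100-compound library at 2 or 10 μM. Culture was in RPMI 1640 with 10% FBS at 37 °C in 5% CO2, with 72 h of drug treatment. Viability was measured by Cell Titer Glo luminescence, and the averaged duplicate treatment wells were normalised to duplicate control wells at the same plate position.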

The structures appear in SMILES notation. Counter-ions that a name gives are not always drawn. The full ranking holds about 2,000 compounds; the median of “fractional viability relative to vehicle” is about 0.92, and the lowest 2% start at about 0.11. The list shows a part of the results.

Turning to `Cc1cc(Nc2cc(CN3CCOCC3)c3nc(C)c(Cc4ccc(Cl)cc4F)n3n2)n[nH]1`, the fractional viability (2uM) was 1.09 and the fractional viability (10uM) came to 0.499.

For the compound `CC[C@@]1(O)C(=O)OCc2c1cc1n(c2=O)Cc2cc3c(CN(C)C)c(O)ccc3nc2-1` [Topotecan HCl], the fractional viability runs as follows: (2uM) 0.294; (10uM) 0.172.

`Nc1nc(=O)[nH]cc1F` [Flucytosine] had a fractional viability (2uM) of 1.28 and a fractional viability (10uM) of 1.2.

`O=C(NC1CC1)c1cc(-c2cccs2)on1` [Isoxazole 9 (ISX-9)]: the fractional viability came out at 0.794 (2uM) and 0.676 (10uM).

In the case of `Oc1cc(O)cc(/C=C/c2ccc(O)c(O)c2)c1` [Piceatannol], the fractional viability runs as follows: (2uM) 0.858; (10uM) 0.737.

`O=C(O)c1ccc(O)c2ncccc12`: the fractional viability runs as follows: (2uM) 0.916; (10uM) 1.04.

Consider `COc1cc2ncnc(Nc3ccc(O)c(Br)c3)c2cc1OC`, for which the fractional viability is, setting by setting: (2uM) 1.37; (10uM) 1.19.

As for `COc1cc(-c2cc(-c3cccc(O)c3)cnc2N)cc(OC)c1OC`, the fractional viability is, setting by setting: (2uM) 0.734; (10uM) 0.656.

In the case of `CCCC(=O)Nc1cccc(NC(=O)c2ccccc2Br)c1`, the fractional viability (2uM) came to 1 and the fractional viability (10uM) stood at 1.07.

For `CO[C@H]1C[C@@H]2CC[C@@H](C)[C@@](O)(O2)C(=O)C(=O)N2CCCC[C@H]2C(=O)O[C@H]([C@H](C)C[C@@H]2CC[C@H](n3cnnn3)[C@H](OC)C2)CC(=O)[C@H](C)/C=C(\C)[C@@H](O)[C@@H](OC)C(=O)[C@H](C)C[C@H](C)/C=C/C=C/C=C/1C` [Zotarolimus(ABT-578)], the fractional viability by setting is: (2uM) 0.954; (10uM) 1.03.

Consider `CCOc1nc2cccc(C(=O)OC(C)OC(=O)OC3CCCCC3)c2n1Cc1ccc(-c2ccccc2-c2nn[nH]n2)cc1` (stereo unspecified) [Candesartan Cilexetil], for which the fractional viability was 1.26 (2uM) and 1.02 (10uM).

As to `Nc1ccc(S(N)(=O)=O)cc1` [Sulfanilamide], the fractional viability came out at 1.13 (2uM) and 0.969 (10uM).

Turning to `CCN1CCC[C@H]1CNC(=O)c1cc(S(N)(=O)=O)ccc1OC` [Levosulpiride], the fractional viability runs as follows: (2uM) 1.07; (10uM) 0.94.

`CCCNS(=O)(=O)Nc1ncnc(OCCOc2ncc(Br)cn2)c1-c1ccc(Br)cc1` [Macitentan]: the fractional viability is, setting by setting: (2uM) 0.84; (10uM) 0.867.

For the compound `CCC(C)(C)c1ccc(CC(C)CN2C[C@@H](C)O[C@@H](C)C2)cc1` (stereo partly specified) [Amorolfine HCl], the fractional viability by setting is: (2uM) 1.08; (10uM) 0.827.

As for `CC(C)N(CCC(=O)c1ccc2ccccc2c1)Cc1ccccc1`, the fractional viability runs as follows: (2uM) 0.883; (10uM) 0.965.

The compound `CC(C)(C)C#Cc1cc(N(C(=O)[C@H]2CC[C@H](C)CC2)[C@H]2CC[C@H](O)CC2)c(C(=O)O)s1` [VX-222 (VCH-222, Lomibuvir)] displayed a fractional viability (2uM) of 1.08 and a fractional viability (10uM) of 0.884.

On to `CCOC(=O)c1ccc(C#Cc2ccc3c(c2)C(C)(C)CCS3)nc1` [Tazarotene], for which the fractional viability (2uM) was found to be 0.949 and the fractional viability (10uM) amounted to 0.769.

As to `Cn1c(=O)c(F)c(Nc2ccc(I)cc2F)c2c(=O)n(C[C@@H](O)CO)cnc21`, the fractional viability runs as follows: (2uM) 0.516; (10uM) 0.403.

Regarding `COc1ccc(/C=C/C(=O)C2(C(=O)/C=C/c3ccc(OC)c(OC)c3)CCCCC2)cc1OC`, the fractional viability is, setting by setting: (2uM) 0.533; (10uM) 0.293.

With `COc1ccc(-c2cc3c(C)nc(N)nc3n([C@H]3CC[C@H](OCCO)CC3)c2=O)cn1`, the fractional viability is, setting by setting: (2uM) 0.222; (10uM) 0.146.

Consider `NCc1c[nH]c(=S)n1[C@H]1CCc2c(F)cc(F)cc2C1` [Nepicastat (SYN-117) HCl], for which the fractional viability reads like this: (2uM) 0.952; (10uM) 0.843.

As to `CCCc1nc(C(C)(C)O)c(C(=O)OCc2oc(=O)oc2C)n1Cc1ccc(-c2ccccc2-c2nnn[nH]2)cc1` [Olmesartan Medoxomil], the fractional viability runs as follows: (2uM) 0.909; (10uM) 1.05.

Regarding `Cn1c(=O)c2c(ncn2CC(O)CO)n(C)c1=O` (stereo unspecified) [Dyphylline], the fractional viability turned out to be 1.08 (2uM) and 1.1 (10uM).

On to `Nc1nccs1` [Aminothiazole], for which the fractional viability runs as follows: (2uM) 0.807; (10uM) 0.849.

For `NC(=O)c1cccnc1` [Nicotinamide (Vitamin B3)], the fractional viability is, setting by setting: (2uM) 0.925; (10uM) 0.968.

In the case of `S=c1nc[nH]c2nc[nH]c12` [6-Mercaptopurine (6-MP) Monohydrate], the fractional viability was determined as 0.93 (2uM) and 0.846 (10uM).

As to `Cc1c(Cn2c(C)nc3c(C(=O)O)cc(N4CCOCC4)cc32)cccc1C(F)(F)F`, the fractional viability reads like this: (2uM) 0.765; (10uM) 0.943.

For `O=C(NCc1ccc(Oc2ccccc2)cc1)c1nc(-c2cc(Br)c(O)c(Br)c2)no1`, the fractional viability is, setting by setting: (2uM) 0.899; (10uM) 0.399.

As to `CCCCCCCCCCCCCCCC[N+](C)(C)C` [Cetrimonium Bromide (CTAB)], the fractional viability stood at 0.515 (2uM) and 0.198 (10uM).

The compound `COc1ccc(CNCc2cccc3ccccc23)cc1` displayed a fractional viability (2uM) of 1.06 and a fractional viability (10uM) of 0.875.

`NC(=O)[C@@H](CCC(F)(F)F)N(Cc1ccc(-c2ncon2)cc1F)S(=O)(=O)c1ccc(Cl)cc1`: the fractional viability (2uM) came to 0.85 and the fractional viability (10uM) came to 0.744.

For the compound `Cc1[nH]c(/C=C2\C(=O)Nc3ccc(S(=O)(=O)Cc4c(Cl)cccc4Cl)cc32)c(C)c1C(=O)N1CCC[C@@H]1CN1CCCC1`, the fractional viability was 0.507 (2uM) and 0.118 (10uM).

`N#CC(=C(/N)Sc1ccccc1N)/C(C#N)=C(\N)Sc1ccccc1N`: the fractional viability is, setting by setting: (2uM) 1.36; (10uM) 1.25.

As for `Nc1nc(Nc2ccc(S(N)(=O)=O)cc2)nn1C(=O)c1c(F)cccc1F`, the fractional viability runs as follows: (2uM) 0.664; (10uM) 0.778.

With `CC(C)c1onc(-c2c(Cl)cccc2Cl)c1COc1ccc(/C=C/c2cccc(C(=O)O)c2)c(Cl)c1`, the fractional viability was 1.07 (2uM) and 0.861 (10uM).

For the compound `NC(=O)CCCSc1nc(N)nc(-c2c(Cl)cc3c4c(cccc24)COC3)n1`, the fractional viability is 0.868 (2uM) and 0.815 (10uM).

Consider `C=CCN1CCCC1CNC(=O)c1cc2nn[nH]c2cc1OC` (stereo unspecified) [Alizapride HCl], for which the fractional viability reads like this: (2uM) 0.868; (10uM) 0.818.

As for `CC(C)(Oc1ccc(C2CC2(Cl)Cl)cc1)C(=O)O` (stereo unspecified) [Ciprofibrate], the fractional viability by setting is: (2uM) 1.04; (10uM) 1.02.

Take `Cn1cnc(N)c2ncnc1-2` [3-Methyladenine]: the fractional viability amounted to 1.15 (2uM) and 1.1 (10uM).

For `CCc1cc(/C(C)=N/OCc2ccc(C3CCCCC3)c(C(F)(F)F)c2)ccc1CN1CC(C(=O)O)C1` [BAF312 (Siponimod)], the fractional viability is 0.867 (2uM) and 0.671 (10uM).

As for `Cc1cc(CS(=O)(=O)c2ccccc2)cc(OCc2ccc(CN3CCC[C@@H]3CO)cc2)c1`, the fractional viability worked out at 0.843 (2uM) and 0.875 (10uM).

In the case of `CCN(CCCc1ccccc1)CCCc1ccccc1` [Alverine Citrate], the fractional viability reads like this: (2uM) 0.87; (10uM) 1.05.

For `COc1cc2c(cc1OC)CN(CCc1ccc(NC(=O)c3cccc4c(=O)c5cccc(OC)c5[nH]c34)cc1)CC2`, the fractional viability by setting is: (2uM) 0.772; (10uM) 0.955.

For the compound `Clc1ccc(COC(Cn2ccnc2)c2ccc(Cl)cc2Cl)cc1` (stereo unspecified) [Econazole nitrate], the fractional viability by setting is: (2uM) 1.11; (10uM) 0.789.

Turning to `NC(=O)NO` [Hydroxyurea], the fractional viability is 1.25 (2uM) and 1.1 (10uM).

For the compound `Clc1ccccc1C(c1ccccc1)(c1ccccc1)n1ccnc1` [Clotrimazole], the fractional viability reads like this: (2uM) 0.934; (10uM) 0.909.

Turning to `CC(C)(C)c1ccc(S(=O)(=O)NCc2ccc(C(=O)Nc3cccnc3)cc2)cc1`, the fractional viability runs as follows: (2uM) 0.306; (10uM) 0.165.
